Laboratory results reported in the RNAGym collection of RNA variant scans (doi:10.1073/pnas.2313332121).
Variants at the floor of the assay are shown more often than the library holds them.

B1: TPR 5TU (parent)
chain: GGAUCUUCUCGAUCUAACAAAAAAGACAAAUCUGCCACAAAGCUUGAGAGCAUCUUCGGAUGCAGAGGCGGCAGCCUUCGGUGGCGCGAUAGCGCCAACGUUCUCAACUAUGACACGCAAAACGCGUGCUCCGUUGAAUGGAGUUUAUCAUG

Variants of: B1
Assay: polymerase ribozyme fitness, log enrichment relative to wild type (log ratio); higher = more active; in vitro selection for triplet polymerase activity
Outline: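 For each subunit of a heterodimeric triplet polymerase ribozyme, a mutant library was built by PCR and transcribed, then taken through a single in vitro selection round in triplicate. Selection involved annealing to a biotinylated primer, the partner subunit and triplets, incubation frozen at −7 °C, gel excision of extended constructs, capture on streptavidin beads and RT-PCR. Genotypes were retained after Illumina sequencing of inputs and outputs only with ≥10 input reads and ≥1 read in each output. Fitness is defined as the logarithm of a genotype's enrichment relative to wild-type enrichment, using inverse-variance-weighted averages across replicates, with the logarithm taken to base 2.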

| Variant | polymerase ribozyme fitness (log ratio) |
| --- | --- |
| GGAUCUUCUCGAUGUAACAAAAAAGACAAAUCUGCCACAAAGCGUGAGAGCAUCUUCGGAUGCAGAGGCGGCAGCCUUCGGUGGCGCGAUAGCGCCAACGUUCUCAACUAUGACACGCAAAACGCGUGCUCCGUUGAAUGGAGUUUAUCAUG [C14G U44G] | ≤ -4.2 |
| GGAUCUUCUCGAUGUAACAAAAAAGACAAAUCUGCCACAAAGCGUGAGAGCAUCUUCGGAUGGAGAGGCGGCAGCCUUCGGUGGCGCGAUAGCGCCAACGUUCUCAACUACGCCACGCAAAACGCGUGCUCCGUCGAAUGGAGUUUAUCAUG [C14G U44G C63G U111C A113C U135C] | ≤ -4.2 |
| GGAUCUUCUCGAUGUAACAAAAAAGACAAAUCUGCCACAAAGCGUGAGAGCAUCUUCGGAUGCAGAGGCGGCAGUCUUCGGUGGAGCGACAGCGCGAACGUUCUCAACUAUGACACGCAAAACGCGUGCUCCGUUGAUUGGAGUUUAUCAUG [C14G U44G C75U C85A U90C C96G A138U] | ≤ -4.2 |
| GGAUCUUCUCGAUGUAACAAAAAAGACAAAUCUGCCACAAAGCUAGAGAGCUUCUUCGGAUGCAGAGCCGGCAGCCUUCGGUGGCGCGAUAGCGCAAACGUUCUCAACUAUGACACGCAAAACGCCUGCUCCGUUGAAUGGAGUUUAUCAUG [C14G U45A A52U G68C C96A G126C] | ≤ -4.2 |
| GGAUCUUCUCGAUGUAACAAAAAAGACAAAUCUGCCACAAAGCUAGAGAGCAUCUUCGGAUGCAGAGGCGGCAGCCUUCGGUGGCGCGAUAGUGCCAACGUUCUCAACUAUGAUACGCAAAACGCGAGCUCCGUUGAAUGGAGUUUAUCAUG [C14G U45A C93U C114U U127A] | ≤ -4.2 |
| GGAUCUUCUCGAUGUAACAAAAAAGACAAAUCUGCCACAAAGCUUGAGAGCAGCUUUGGAUGCAGAGGCGGCAGCCUUCGGUGGCGCGAUGGCGCCAACGUUCUCAACUAUGACACGCAAAUCGCGUGCUCCGUUGAAUGGCGAUUAUCAUG [C14G U53G C57U A91G A122U A142C U144A] | ≤ -4.2 |
| GGAUCUUCUCGAUGUAACAAAAAAGACAAAUCUGCCACAAAGCUUGAGAGCAUCAUCGGAUGCAGAGGCGGCAGCCUUCGGUGGCGCGAUAGCGCUAACGUUCUCAACUAUGACACGCAAAACGCGUGCUCCGUUGAAUGGAGUUUAUCAUG [C14G U55A C96U] | -3.27 |
| GGAUCUUCUCGAUGUAACAAAAAAGACAAAUCUGCCACAAAGCUUGAGAGCAUCAUCGGAUGCAGAGGCGGCAGCCUUCGGUGACGCGAUAGCGCCAACGUUCUCAACUAUGACACGCAAAACGCGUGCUCCGUUGAAUGAAGUUUAUCAUG [C14G U55A G84A G141A] | -3.7 |
| GGAUCUUCUCGAUGUAACAAAAAAGACAAAUCUGCCACAAAGCUUGAGAGCAUCAUCGGAAGCAGAGGCGUCAGUCUUCGGUGGUGCGAUAGCGCCAACGUUCUCAACUAUGACACGCAAAACGCGUGCUCCGUUGAAUGGAGUUUAUCAUG [C14G U55A U61A G71U C75U C85U] | ≤ -4.2 |
| GGAUCUUCUCGAUGUAACAAAAAAGACAAAUCUGCCACAAAGCUUGAGAGCAUCGUUGGAUGCAGAGGCGGCAGCCUUCGGUGGCCCGAUAGCGCCAACGUUCUCAACUAUGACACGCAAAACGGGUGCUCCGUUGUAUGGAGUUUAUCAUG [C14G U55G C57U G86C C125G A137U] | ≤ -4.2 |
| GGAUCUUCUCGAUGUAACAAAAAAGACAAAUCUGCCACAAAGCUUGAGAGCAUCGUCAGAUGCAGGGGCGGCAGCCUUCGGUGGCGCGUUAUCGCCAACGUUCUCAACUAUGAACCGCAAAACGCGUGCUCCGUUGAAUGGAGUUUAUCAUG [C14G U55G G58A A66G A89U G92U C114A A115C] | ≤ -4.2 |
| GGAUCUUCUCGAUGUAACAAAAAAGACAAAUCUGCCACAAAGCUUGAGAGCAUCGUCGGAUGCAGAGGCGGCACCCUUCGGUGGCGCGAUAGCGCCAACGUUCUCAACUAUGACACGCAAAACGCGUGCUCCGUUGAAUGGAGUUUACCAUG [C14G U55G G74C U148C] | ≤ -4.2 |
| GGAUCUUCUCGAUGUAACAAAAAAGACAAAUCUGCCACAAAGCUUGAGAGCAUCUGCGGAUGCAGAGGCGGCAGCCUUCGGUGGCGCGAUAGCGUCAACGUUCUCAACUAUGACAAGCAAAACGCGUGCUCCGUUGAAUUGAGUUUAUCAUG [C14G U56G C95U C116A G140U] | ≤ -4.2 |
| GGAUCUUCUCGAUGUAACAAAAAAGACAAAUCUGCCACAAAGCUUGAGAGCAUCUUCGGAUGCAGAGGCGGCAGCCAUCGGUGGCGCGAUAGCUCCAACGUUCUCAACUAUGACACGCAAAACGCGUGCUCCGUUGAAUGGAGUUUAUCAGG [C14G U77A G94U U151G] | ≤ -4.2 |
| GGAUCUUCUCGAUGUAACAAAAAAGACAAAUCUGCCACAAAGCUUGAGAGCAUCUUCGGAUGCAGAGGCGGCAGCCGUCGGUGGCGCGAUAGUGCGAACGUUCUCAACUAUGACACGCAAAACGCGUGCUCCGUUGAAUGGAGUUUAUCAUG [C14G U77G C93U C96G] | ≤ -4.2 |
| GGAUCUUCUCGAUGUAACAAAAAAGACAAAUCUGCCACAAAGCUUGAGAGCAUCUUCGGAUGCAGAGGCGGCAGCCUUCGGAGACGUGAUAGCGCCAACGUUCUCAACUAUGACACGGAAAACGCGUGCUCCGUUGAAUGGAGUUUAUCAUG [C14G U82A G84A C87U C118G] | -3.78 |
| GGAUCUUCUCGAUGUAACAAAAAAGACAAAUCUGCCACAAAGCUUGAGAGCAUCUUCGGAUGCAGAGGCGGCAGCCUUCGGUGGCGCGAGAGCGCCAAUGUUCUCAACUAUGACACGCAAAACGCGUGCUCCGUUAAAUGGAGUUUAUCAUG [C14G U90G C99U G136A] | ≤ -4.2 |
| GGAUCUUCUCGAUGUAACAAAAAAGACAAAUCUGCCACAAAGCUUGAGAGCAUCUUCGGAUGCAGAGGCGGCAGCCUUCGGUGGCGCGAUAGCGCCAACGUACUCAACUAUGACACGCAAAACGCGUGCUCCGUUGAAUGGAGUUUAUCAUG [C14G U102A] | -4.05 |
| GGAUCUUCUCGAUGUAACAAAAAAGACAAAUCUGCCACAAAGCUUGAGAGCAUCUUCGGAUGCAGAGGCGGCAGCCUUCGGUGGCGCGAUAGCGCCAACGUUCUCAACUAUGACACGCAAAACGCGGGCUCCGUUGAAUGGAGUUUAUCAUG [C14G U127G] | -4.18 |
